Here are results for 30 compounds from PubChem BioAssay AID1745853 (National Center for Advancing Translational Sciences (NCATS), 2022).

Common to all, as to test: Primary Screen for Target Class Profiling of Small Molecule Inhibitors of Methyltransferases
The target in test [1] is Glycine N-methyltransferase (Homo sapiens) (UniProt Q14749). Particulars: purified enzyme, MTase-Glo SAH luminescence; measured here: GNMT inhibition; at 40 µM; stronger effect = lower value. The method, boiled down:
(§1)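 Each enzyme was reacted with SAM and its substrate, with compounds tested once at 40 uM; SAH formed was read by MTase-Glo luminescence.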

Test [2] deals with Guanidinoacetate N-methyltransferase (Homo sapiens) (UniProt Q14353). Particulars: purified enzyme, MTase-Glo SAH luminescence; measured here: GAMT inhibition; at 40 µM; stronger effect = lower value. The method, boiled down:
as §1

In test [3] the target is Histamine N-methyltransferase (Homo sapiens) (UniProt P50135). Particulars: purified enzyme, MTase-Glo SAH luminescence; measured here: HNMT inhibition; at 40 µM; stronger effect = lower value. The essentials:
as §1

Test [4] addresses Nicotinamide N-methyltransferase (Homo sapiens) (UniProt P40261). Particulars: purified enzyme, MTase-Glo SAH luminescence; measured here: NNMT inhibition; at 40 µM; stronger effect = lower value. The method, boiled down: as §1
Test [5] has as its target Phenylethanolamine N-methyltransferase (Homo sapiens) (UniProt P11086). Particulars: purified enzyme, MTase-Glo SAH luminescence; measured here: PNMT inhibition; at 40 µM; stronger effect = lower value. The essentials: as §1

“And” between values parts separate entries of the source, which are not always exact repeats. Equal values may be shown once. The list shows a part of the results. Shown are side measurements of this screen, not its main read-out; they come without a call.
% is set by controls: 0 for no effect and ±100 for the full control effect.

Regarding `Cc1ccc(C)c(C(=O)Cn2nc3n(CCC(C)C)c(=O)c4ccc(C(=O)NC(C)C)cc4n3c2=O)c1`, the activity change, negative = inhibition is 4.15% in test [1]; 0% in test [2]; -0.148% in test [3]; 4.44% in test [4]; 4.96% in test [5].
In the same order, the values of `Cc1cc2c(cc3n2CC(C)(C(=O)NC2CCCCC2)N(Cc2ccccc2C)C3=O)o1` (stereo not given) are -2.78%, 4.52%, -1.26%, -1.74% and -3.7%.
In the same order, the values of `CCOC(=O)c1cc2n(n1)CC(C)(C(=O)NCc1ccccc1)N(CCc1ccccc1OC)C2=O` (stereo not given) are 1.29%, 0%, 3.41%, -4.97% and 2.33%.
For `CCCCNc1nc2c(-c3cccc(F)c3)nnn2c2ccccc12` the same measures were -6.71%, 6.29%, -2.03%, 0.719% and -8.22%.
For `O=C(O)/C=C/c1ccc(O)c(O)c1`, the activity change, negative = inhibition in test [1] was -7.49%; in test [2] it was 9.68%; in test [3], 3.05%; in test [4] it was 0.156%; in test [5], 11.2%.
For `CCC(C)NC(=O)c1ccc2c(=O)n(C)c3nnc(SCC(=O)NC4CCCCC4)n3c2c1` (stereo not given) the same measures were 7.14%, 3.93%, 4.9%, 2.2% and 2.27%.
`CCCCc1nc2cc(/C=C/C(=O)NO)ccc2n1CCN(CC)CC`: the activity change, negative = inhibition in test [1] is 3.6% and -17.7%; in test [2], 5.9%; in test [3], -19.9% and -27.7%; in test [4], -9.43% and 10.1%; in test [5], 5.42% and 42.2%.
For `COc1ccc(OC)c(-c2nnc3ccc(-c4ccc(OC)c(O[C@@H]5CCOC5)c4)nn23)c1`, the activity change, negative = inhibition in test [1] is -18.7%; in test [2], -1.3%; in test [3], -1.73%; in test [4] it was -14.8%; in test [5] it was 1.21%.
In the same order, the values of `O=C1CCCN1CCCN1C(=O)[C@@H]2C[C@@H](O)CN2C2(CN(C3CCC(F)(F)CC3)C2)C1=O` are -3.03%, -4.35%, -0.19%, -4.87% and -10%.
Turning to `Cc1ccc(NC(=O)c2cc3c(s2)CN(C2CC2)C3)cc1`, the activity change, negative = inhibition in test [1] was -16.8%; in test [2] it was -2.55%; in test [3], -12.2%; in test [4], -5.18%; in test [5], -14.9%.
For `CCn1c(CO)nnc1C1CC(NC(=O)c2[nH]c3ccc(OC)cc3c2C)C1` (stereo not given) the same measures were -12.7%, -11%, -8.04%, -21.1% and -22.8%.
In the same order, the values of `COC(=O)c1cc2n(n1)CC(C)(C(=O)NC1CCCC1)N(c1cccc(Cl)c1C)C2=O` (stereo not given) are 0.129%, 0%, 3.24%, 4.46% and 2.12%.
For `C=CCn1c(=O)c2ccc(C(=O)NCC(C)C)cc2n2c(=O)n(CC(=O)Nc3ccccc3F)nc12` the same measures were 2.06%, 0%, 2.54%, 0.109% and -0.265%.
Take `CCc1ccc(CN2C(=O)c3ccc(-c4ccccc4)n3CC2(C)C(=O)NC2CCC(C)CC2)cc1` (stereo not given): the activity change, negative = inhibition in test [1] was 1.07%; in test [2] it was 2.8%; in test [3], -2.15%; in test [4], -1.36%; in test [5], -0.849%.
In the case of `Cc1cc2c(cc3n2CC(C)(C(=O)NC2CCCCCCC2)N(Cc2ccc(F)cc2)C3=O)o1` (stereo not given), the activity change, negative = inhibition is -4.51% in test [1]; 2.18% in test [2]; 0.198% in test [3]; -2.96% in test [4]; -2.16% in test [5].
For `O=C(O)C1CCCN(CCC=C(c2ccccc2)c2ccccc2)C1` (stereo not given) the same measures were -4%, 6.04%, 2.27%, -8.17% and -0.053%.
In the same order, the values of `CC(C)c1cc(-c2n[nH]c(=O)n2-c2ccc3c(ccn3C)c2)c(O)cc1O` are -41.2%, -19%, -47.2%, -52.7% and -32.6%.
For `CCCN1C(=O)c2c(C(=O)NCc3ccccc3OCC)ncn2CC1(C)C(=O)NC1CCCC1` (stereo not given) the same measures were 3.61%, 0%, 1.58%, 5.63% and 6.95%.
For `CC1(C(=O)NC2CCCC2)Cn2c(ccc2-c2ccco2)C(=O)N1CCN1CCCC1` (stereo not given), the activity change, negative = inhibition in test [1] was -3.07%; in test [2], 2.27%; in test [3], 6.56%; in test [4], 5.81%; in test [5] it was 1.57%.
In the case of `CC(=O)O[C@]1(C(C)=O)CC[C@H]2[C@@H]3C=C(Cl)C4=CC(=O)[C@@H]5C[C@@H]5[C@]4(C)[C@H]3CC[C@@]21C`, the activity change, negative = inhibition in test [1] was -5.42% and -11%; in test [2], -7.73% and 1.55%; in test [3] it was -10.5% and -3.32%; in test [4], -34.7% and -19.1%; in test [5], -12.9% and -3.9%.
Take `Cc1ccc(N2C(=O)c3cc4ccccc4n3CC2(C)C(=O)NCCC(C)C)cc1C` (stereo not given): the activity change, negative = inhibition in test [1] is 2.53%; in test [2], 0.084%; in test [3], 4.9%; in test [4], 3.65%; in test [5] it was -1.39%.
Regarding `COCC1CCN(c2ccc(-c3nc(-c4ccccc4C)no3)cn2)C1` (stereo not given), the activity change, negative = inhibition was -12.7% in test [1]; -11% in test [2]; -29.5% in test [3]; -4.43% in test [4]; -3.9% in test [5].
For `Cc1cc2c(cc3n2CC(C)(C(=O)NC2CCCCCC2)N(C2CCCC2)C3=O)o1` (stereo not given), the activity change, negative = inhibition in test [1] was 1.13%; in test [2] it was 1.03%; in test [3] it was 3.81%; in test [4], 2.25%; in test [5], -1.23%.
For `O=C(C1CCCN1C(=O)C1CCCC1)N1CCC(N2Cc3ccccc3C2=O)CC1` (stereo not given) the same measures were -6.02%, -9.75%, -4.7%, -22.9% and -6.86%.
In the same order, the values of `CCCCNc1nc2c(-c3cccc(C)c3)nnn2c2ccccc12` are -5.84%, -1.94%, -8.1%, -6.44% and -19.7%.
In the same order, the values of `O=C(Nc1ccc(C(O)(C(F)(F)F)C(F)(F)F)cc1)c1ccc(C(F)(F)F)cc1` are -3.27%, 14.4%, 10.3%, -6.44% and 7.75%.
Turning to `CCCn1c(=O)c2ccc(C(=O)NC(C)C)cc2n2c(=O)n(CC(=O)Nc3ccc(C)cc3)nc12`, the activity change, negative = inhibition was 4.53% in test [1]; 1.58% in test [2]; 1.52% in test [3]; 8.5% in test [4]; -0.977% in test [5].
For the compound `CC1(C(=O)NCc2ccccc2)Cn2c(cc3ccccc32)C(=O)N1CCc1ccco1` (stereo not given), the activity change, negative = inhibition in test [1] was -1.26%; in test [2] it was 4.96%; in test [3] it was 4.81%; in test [4] it was -9.12%; in test [5], -2.37%.
For `COc1ccc(CNC(=O)c2ncn3c2C(=O)N(C2CC2)C(C)(C(=O)NCc2cccc(C)c2)C3)cc1` (stereo not given) the same measures were 2.56%, 5.32%, 13.7%, 6.04% and 11%.
As to `COc1ccc(-c2ccc3ncc4c(c3c2)n(-c2ccc(N3CCNCC3)c(C(F)(F)F)c2)c(=O)n4C)cn1`, the activity change, negative = inhibition in test [1] is -46.6%; in test [2] it was -11.6% and -12.7%; in test [3], -47.4%; in test [4] it was -35.8% and -30.2%; in test [5] it was -28.3% and -39%.
